Screen size: about 43,000 compounds; about 200 (0.47%) were called active. Roughly 12% stayed inconclusive and do not appear here. Calls come from the whole dose curve; as a rule, active = well fitted cell-killing curve with a large enough effect; inconclusive = small, poorly fitted or top-dose-only effect, or effect the other way; inactive = flat fitted curve, though single readings scatter. Some of the results follow.
Assay: Cell viability qHTS assay in S16 Pmp22-F2sN cells; note: nearly all actives have a fitted effect of over 65% in size
Conditions: S16 Pmp22-F2sN Schwann cells viability, CellTiter-Glo, 24 h; series mostly up to 57.5 µM; activity change, negative = cytotoxicity: at the top concentration
Method in brief: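 S16 Pmp22-F2sN Schwann cells (500-1,000/well) in phenol-red-free DMEM with 10% FBS received 23 nL compound by pin tool for 24 h at 37 °C. Viability was then read as CellTiter-Glo luminescence after 15 min at room temperature.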
% is set by controls: 0 for no effect and ±100 for the full control effect.

SMILES	activity change, negative = cytotoxicity
CCOC(=O)c1ccccc1NC(=O)CCc1nc(-c2ccc(C)cc2)no1	inactive: 2.98%
CC(Sc1oc(-c2cccs2)nc1S(=O)(=O)c1ccccc1)c1ccccc1 (stereo unspecified)	inactive: 7.66%
Cn1nccc1C(=O)NCc1ccc2c(c1)CCN2C(=O)c1ccc(Cl)cc1	inactive: -1.01%
COc1ccc(C(CNC(=O)COc2cc(C)cc(C)c2)N2CCOCC2)cc1 (stereo unspecified)	inactive: 9.39%
CCCCOc1ccc(Cn2c(=O)sc3ccccc32)cc1	inactive: -0.0367%
CCc1ccc(NC(=O)c2nn(-c3ccc(OC)cc3)c(=O)c3c2c2ccccc2n3C)cc1	inactive: 8.66%
CCc1ccc(Oc2c(C(F)(F)F)oc3c(CN4CCCC(C)C4)c(O)ccc3c2=O)cc1 (stereo unspecified)	inactive: 5.37%
O=C(Nc1cccc(NC(=O)c2ccccc2Cl)c1)c1cccc(Br)c1	inactive: -9.96%
CCc1ccccc1NC(=O)C1CCCN(c2cnccn2)C1 (stereo unspecified)	inactive: -5.29%
Cc1ccc(NC(=O)CSc2nc(=O)cc(N)n2CCc2ccccc2)cc1	inactive: -2.81%
COc1ccc(NC(=O)C(NC(=O)/C=C\c2ccc3c(c2)OCO3)c2ccccc2)cc1 (stereo unspecified)	inactive: -27.5%
CSc1ncc(C(=O)N2CCN(c3cccc(C(F)(F)F)c3)CC2)c(C)n1	inactive: -4.86%
COc1ccccc1OCC(=O)Nc1c(C(=O)c2ccc(F)cc2)oc2ccccc12	inactive: 16.5%
CCCN(CCC)CCCNC(=O)c1cc2c(=O)[nH]c3ccccc3c2n1C	inactive: 0.725%
COc1cccc(-n2c(=O)c3sc4ccccc4c3n(CC(=O)Nc3ccccc3C)c2=O)c1	inactive: 22.6%
COc1ccc(C2CC(=O)c3cc(-c4nc(-c5cccc([N+](=O)[O-])c5)cs4)c(=O)n(-c4ccc(OC)cc4)c3C2)cc1 (stereo unspecified)	inactive: -0.543%
COc1ccc(C2N3CC4(C)CN2CC(c2ccccc2)(C3)C4=O)cc1OC (stereo unspecified)	inactive: 5.68%
Cc1ccc(NC(=O)C2CCN(S(=O)(=O)c3cc(-c4noc(C)n4)ccc3C)CC2)c(C)c1	inactive: -20.4%
Cc1ccc(Cl)cc1NC(=O)CN1C(=O)C(C)(C)c2cc(S(=O)(=O)N3CCCCC3)ccc21	inactive: -3.21%
COc1ccc(S(=O)(=O)c2cnc(SCC(=O)Nc3cc(F)ccc3C)[nH]c2=O)cc1Cl	inactive: 8.12%
CCC1CCCCN1C(=O)c1sc(-n2nc(C)c(Cc3ccccc3)c2C)nc1C (stereo unspecified)	inactive: 2.94%

SMILES	activity change, negative = cytotoxicity
CCOC(=O)c1ccc(OC(=O)c2cn(-c3cccc(OC)c3)c(=O)c3ccccc23)cc1	inactive: 1.43%
CCc1ccc2c(c1)NC(c1ccc(OC)cc1)=NC(c1ccncc1)=N2	inactive: 10%
CCOc1ccccc1NC(=O)C(C)N(c1ccccc1)S(C)(=O)=O (stereo unspecified)	inactive: -5.95%
COc1cc(/C=C/c2nc(C#N)c(N3CCC(C)CC3)o2)cc(OC)c1OC	inactive: -18.8%
COc1cccc(OC(=O)CSc2nnc(-c3ccc4c(c3)OCO4)o2)c1	inactive: 3.48%
CC(C)CCN(C(=O)Nc1ccc(Cl)c(Cl)c1)C(C)c1cccs1 (stereo unspecified)	inactive: -11.2%
CCOC(=O)c1c(S(=O)(=O)NCC(=O)NCc2ccccc2)c(C)n(C)c1C	inactive: 10.5%
Cc1cccc(-c2nc3c4ccccc4nc(NCc4ccc(F)cc4)n3n2)c1	inactive: 9.57%
COc1ccc(NCc2cc3ccc(OC)cc3n(CC(=O)Nc3cc(Cl)ccc3C)c2=O)cc1	inactive: 11.4%
CCOc1ccc(NS(=O)(=O)c2ccc3[nH]cc(C(=O)NCC4CCCO4)c(=O)c3c2)cc1 (stereo unspecified)	inactive: 15.5%
Nc1c(-c2nc(-c3ccc(F)cc3)cs2)c2ccccn2c1C(=O)c1ccc2c(c1)OCO2	inactive: -1.77%
CCOc1ccc(N2CC(C(=O)NCc3nnnn3-c3ccc(C)c(C)c3)CC2=O)cc1 (stereo unspecified)	inactive: 14%
CCc1cccc(NC(=O)CN(C)S(=O)(=O)c2cccc3cccnc23)c1	inactive: 6.3%
CC1CCc2c(sc(NC(=O)c3cc4nc(-c5ccc(Cl)cc5)cc(C(F)(F)F)n4n3)c2C#N)C1 (stereo unspecified)	inactive: 16.1%
CCSc1ncc(Cl)c(C(=O)Nc2sc3c(c2C(=O)NC)CCCC3)n1	inactive: 2.13%
CCc1ccc(NC(=O)c2cnc3sc(N4CCCC4)nn3c2=O)cc1	inactive: 10.7%
Cc1cc2nc(-c3ccc(OCc4ccccc4)cc3)cc(C(F)(F)F)n2n1	inactive: 9.09%
O=C(Cn1c(=O)c2cccn2c2cccnc21)NCc1ccccc1F	inactive: 4.55%
Cc1cc(-n2c(C)nc3ccccc3c2=O)ccc1NC(=O)c1ccc([N+](=O)[O-])cc1	inactive: -3.27%
O=C(Nc1ccc(S(=O)(=O)N2CCCCCC2)cc1)c1cc(=O)c2ccccc2o1	inactive: -18.2%
CCn1c2ccccc2c2cc(CN3CCN(Cc4ccccc4C)CC3)ccc21	inactive: 25.2%

SMILES	activity change, negative = cytotoxicity
COc1ccccc1C(=O)Nc1ccc(OCc2cc(=O)n3cc(C)sc3n2)cc1	inactive: 3.4%
CCc1ccc(NC(=O)Cn2c(-c3cncs3)nc3ccccc32)cc1	inactive: 0.447%
c1ccc(OCCn2c(COc3ccccc3)nc3ccccc32)cc1	inactive: 3.56%
O=C1c2oc3ccccc3c(=O)c2C(c2cccc(Cl)c2)N1c1ccccn1 (stereo unspecified)	inactive: -1.78%
Cc1ccc2[nH]c(=O)c3cc(C(=O)NCCc4ccc(Cl)cc4)sc3c2c1	inactive: -6.53%
O=C(c1ccc2c(c1)N(Cc1cccc(Cl)c1)C(=O)c1ccccc1S2)N1CCOCC1	inactive: -3.42%
COc1ccc(CCN2C(=O)CN(C3CCC(C)CC3)C(=O)C2c2ccc(OC(C)C)c(OC)c2)cc1OC (stereo unspecified)	inactive: -27%
Cc1ccccc1C(=O)c1cccn1CC(=O)NCc1cccc(Cl)c1	inactive: 0.555%
CCc1ccc(S(=O)(=O)c2nnn3c2nc(NCCNC(C)=O)c2cc(Cl)ccc23)cc1	inactive: -0.66%
CC(C)(C)NC(=O)c1oc2ccccc2c1NC(=O)c1ccc(F)cc1	inactive: 6.92%
CCc1nn(CCCC(=O)NC(C)c2ccccc2)c(=O)c2cc3occc3n12 (stereo unspecified)	inactive: 7.5%
Cc1ccc(Cn2cc(CCC(=O)NCc3ccc(OC(C)C)cc3)c3ccccc32)cc1	inactive: 4.15%
COc1cc(-c2cc(OC)c3c(C)oc(C)c3c(=O)c2)ccc1OC(=O)c1cccc(Cl)c1	inactive: -1.96%
COc1ccc(NC(=O)CCCN2C(=O)COc3ccc(C)cc32)cc1OC	inactive: -1.6%
Cc1ccc(S(=O)(=O)c2nnn3c2nc(NCc2ccccc2Cl)c2sccc23)cc1	inactive: 5.45%
CCOC(=O)c1ccc(NC(=O)c2nn(C)c3c2COc2ccccc2-3)cc1	inactive: -5.44%
CC(C)c1ccc(OCc2cc(=O)n3c(-c4ccccc4)csc3n2)cc1	inactive: 13.5%
O=C(Cn1c(=O)n(-c2ccc(Cl)cc2)c(=O)c2c3c(sc21)CCC3)c1ccccc1	inactive: 23.7%
CCOC(=O)c1c(NC(=O)CSc2cn(CCNC(=O)c3ccccc3F)c3ccccc23)sc2c1CCCC2	inactive: 0.24%

Reference: PubChem BioAssay AID1508642 (National Center for Advancing Translational Sciences (NCATS), 2021)
